Source: the supplement of paper PMC10126150
Values marked as one replicate rest on one cluster of the flow cell; about a third of the high ones do not repeat.

system: ATP; test: switch fluorescence ratio, 500 uM ATP over buffer (Cy3 cluster intensity, sum of 5 cycles each) (fold (ratio)); higher = stronger signal-on switching upon ATP binding; sequences stand for … in TCGTCGGCAGCGTCAGATGTGTATAAGAGACAGTTTTTTTTTTTTTTTTTTTTTTTTT…TC; details: aptamer strand: ATP DNA aptamer (quencher-CACCTGGGGGAGTATTGCGGAGGAAGG + anchor), 100 nM annealed; ATP concentration: 500 uM; one replicate
How it was run: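 For every switch-domain sequence, the fluorescence ratio is the mean of per-cluster values, each being summed target-cycle Cy3 intensity over summed buffer-cycle Cy3 intensity. Clusters outside 100-1000 RFU were excluded. On a modified Illumina MiSeq flow-cell, the Cy3-labelled switching-strand clusters were annealed to 100 nM quencher-labelled ATP aptamer, imaged in selection buffer and then after 15 min with 500 uM ATP at 22 °C. Five such cycles were run, with NaOH stripping and re-annealing between them.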
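Note: ATP exposure 15 min at 22 °C before imaging.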

CACGATATAG was tested. Which switch fluorescence ratio did it give?
Its switch fluorescence ratio is 1.11.

How did the switch fluorescence ratio turn out when CATCGGTGGT was run?
The switch fluorescence ratio was 0.994.

Which switch fluorescence ratio does the source give for TGGACCGAC here?
The switch fluorescence ratio was 1.56.

With GAATAGGCTT as the sequence, how does the switch fluorescence ratio read?
The switch fluorescence ratio was 0.993.

With CAATGGGGTC as the sequence, how does the switch fluorescence ratio read?
The switch fluorescence ratio was 0.974.

TTGTCACACA was tested. Which switch fluorescence ratio did it give?
The switch fluorescence ratio was 0.925.

For TGAAGACTTG, which switch fluorescence ratio is on record?
Its switch fluorescence ratio is 0.943.

Which switch fluorescence ratio does the source give for ATCTGGCCAC here?
Its switch fluorescence ratio is 1.07.

CTGTAGTGAG was tested. Which switch fluorescence ratio did it give?
Its switch fluorescence ratio is 1.06.

With GCCGCAGGAA as the sequence, how does the switch fluorescence ratio read?
The switch fluorescence ratio was 1.41.

With ATCGTTACTG as the sequence, how does the switch fluorescence ratio read?
The switch fluorescence ratio was 1.06.

How did the switch fluorescence ratio turn out when GGCTCTTAGA was run?
The switch fluorescence ratio was 0.985.

For GGTGTGAACC, which switch fluorescence ratio is on record?
The switch fluorescence ratio was 0.958.

AAGAAAAAAT was tested. Which switch fluorescence ratio did it give?
Its switch fluorescence ratio is 0.983.

For GATAATCAAA, which switch fluorescence ratio is on record?
Its switch fluorescence ratio is 0.982.

With TTTAGCGAAA as the sequence, how does the switch fluorescence ratio read?
The switch fluorescence ratio was 0.977.

For AGCATAAGAA, which switch fluorescence ratio is on record?
The switch fluorescence ratio was 0.967.

Which switch fluorescence ratio does the source give for GTGCCCTAGT here?
Its switch fluorescence ratio is 1.01.

How did the switch fluorescence ratio turn out when CCTTATAGCA was run?
The switch fluorescence ratio was 1.51.

How did the switch fluorescence ratio turn out when TACACGATCA was run?
Its switch fluorescence ratio is 1.16.

For GTCGAAATAG, which switch fluorescence ratio is on record?
Its switch fluorescence ratio is 1.52.

How did the switch fluorescence ratio turn out when TCCAATACGA was run?
The switch fluorescence ratio was 4.29.

Which switch fluorescence ratio does the source give for GGTCTAACAA here?
Its switch fluorescence ratio is 0.989.

Which switch fluorescence ratio does the source give for TGATGCTATA here?
The switch fluorescence ratio was 0.994.

With GATGTCTGAC as the sequence, how does the switch fluorescence ratio read?
Its switch fluorescence ratio is 1.06.

CGGCCTTGAG was tested. Which switch fluorescence ratio did it give?
The switch fluorescence ratio was 0.937.

How did the switch fluorescence ratio turn out when GTGCTTGCAT was run?
Its switch fluorescence ratio is 0.987.

How did the switch fluorescence ratio turn out when TTGGCACTCC was run?
Its switch fluorescence ratio is 1.01.

Which switch fluorescence ratio does the source give for GAAAAGCGAT here?
Its switch fluorescence ratio is 1.01.

With TCCGGTTATG as the sequence, how does the switch fluorescence ratio read?
The switch fluorescence ratio was 1.07.

Which switch fluorescence ratio does the source give for ATCTTATGT here?
The switch fluorescence ratio was 0.99.

Which switch fluorescence ratio does the source give for GGTCATGGG here?
Its switch fluorescence ratio is 0.957.

CCTCGTCTAG was tested. Which switch fluorescence ratio did it give?
The switch fluorescence ratio was 1.42.

Which switch fluorescence ratio does the source give for CATATAGTCT here?
Its switch fluorescence ratio is 0.98.

TATAAGTCAA was tested. Which switch fluorescence ratio did it give?
Its switch fluorescence ratio is 1.07.

Which switch fluorescence ratio does the source give for GATGGGTGGT here?
The switch fluorescence ratio was 1.03.

With AGGCGGGACT as the sequence, how does the switch fluorescence ratio read?
Its switch fluorescence ratio is 1.

With TTATAGCGAG as the sequence, how does the switch fluorescence ratio read?
The switch fluorescence ratio was 1.04.

AGCCCAACCA was tested. Which switch fluorescence ratio did it give?
The switch fluorescence ratio was 1.02.

For TATGGCTAAC, which switch fluorescence ratio is on record?
The switch fluorescence ratio was 1.15.

With GGCTACTATA as the sequence, how does the switch fluorescence ratio read?
The switch fluorescence ratio was 1.05.

For GCAGTTGGTT, which switch fluorescence ratio is on record?
The switch fluorescence ratio was 0.973.

Which switch fluorescence ratio does the source give for GGACTGCGCG here?
Its switch fluorescence ratio is 1.05.

CGTAGGCTAC was tested. Which switch fluorescence ratio did it give?
The switch fluorescence ratio was 1.64.

How did the switch fluorescence ratio turn out when ACGGAATTAG was run?
The switch fluorescence ratio was 1.11.

With TAATGTCACT as the sequence, how does the switch fluorescence ratio read?
The switch fluorescence ratio was 0.993.

AACGTGGACC was tested. Which switch fluorescence ratio did it give?
Its switch fluorescence ratio is 1.1.

How did the switch fluorescence ratio turn out when TCGCTCATCC was run?
Its switch fluorescence ratio is 1.15.

How did the switch fluorescence ratio turn out when TGTCGGATAG was run?
Its switch fluorescence ratio is 1.01.

Which switch fluorescence ratio does the source give for GCGACTTTAT here?
The switch fluorescence ratio was 1.08.

With ATAGTTAT as the sequence, how does the switch fluorescence ratio read?
The switch fluorescence ratio was 0.99.

ATCGCGATTG was tested. Which switch fluorescence ratio did it give?
The switch fluorescence ratio was 1.02.

How did the switch fluorescence ratio turn out when GAGGACGAAC was run?
Its switch fluorescence ratio is 1.

AGCACCTTTG was tested. Which switch fluorescence ratio did it give?
Its switch fluorescence ratio is 1.06.

With GGCTAATGT as the sequence, how does the switch fluorescence ratio read?
Its switch fluorescence ratio is 1.01.

With GCTGTCTAGG as the sequence, how does the switch fluorescence ratio read?
Its switch fluorescence ratio is 0.978.

Which switch fluorescence ratio does the source give for AGTACTGTTC here?
The switch fluorescence ratio was 1.04.

For ATGGCTATTA, which switch fluorescence ratio is on record?
Its switch fluorescence ratio is 1.06.

GGCCCATGCA was tested. Which switch fluorescence ratio did it give?
The switch fluorescence ratio was 0.992.

For GGGCGCTCTG, which switch fluorescence ratio is on record?
Its switch fluorescence ratio is 0.984.

How did the switch fluorescence ratio turn out when TGGCAAATG was run?
The switch fluorescence ratio was 0.996.

GGCAGTGGGG was tested. Which switch fluorescence ratio did it give?
The switch fluorescence ratio was 0.992.

For TACCTGTTTT, which switch fluorescence ratio is on record?
The switch fluorescence ratio was 1.01.

With CTGAGAAACG as the sequence, how does the switch fluorescence ratio read?
The switch fluorescence ratio was 1.01.

CAGGTTGT was tested. Which switch fluorescence ratio did it give?
Its switch fluorescence ratio is 1.02.

How did the switch fluorescence ratio turn out when ATCGTTAACT was run?
Its switch fluorescence ratio is 1.03.

For TATACGAC, which switch fluorescence ratio is on record?
The switch fluorescence ratio was 1.2.

For GACGGTGCGC, which switch fluorescence ratio is on record?
Its switch fluorescence ratio is 1.1.

TACAATAGGC was tested. Which switch fluorescence ratio did it give?
The switch fluorescence ratio was 1.05.

CTGTATGTTA was tested. Which switch fluorescence ratio did it give?
Its switch fluorescence ratio is 0.955.

For AAGATTAATT, which switch fluorescence ratio is on record?
Its switch fluorescence ratio is 0.996.

Which switch fluorescence ratio does the source give for TGGTAACGGG here?
Its switch fluorescence ratio is 1.01.

For ATTATACGAA, which switch fluorescence ratio is on record?
Its switch fluorescence ratio is 1.04.

For TCATGCGCGC, which switch fluorescence ratio is on record?
The switch fluorescence ratio was 1.04.

Which switch fluorescence ratio does the source give for TCAAGGGCCC here?
Its switch fluorescence ratio is 0.98.

With TGGTTCCTCA as the sequence, how does the switch fluorescence ratio read?
Its switch fluorescence ratio is 1.05.

Which switch fluorescence ratio does the source give for TAGCTTGTA here?
The switch fluorescence ratio was 0.966.

AGGGGGC was tested. Which switch fluorescence ratio did it give?
The switch fluorescence ratio was 1.04.

Which switch fluorescence ratio does the source give for CTGATCTTTT here?
The switch fluorescence ratio was 0.986.

With TGTAATAATT as the sequence, how does the switch fluorescence ratio read?
Its switch fluorescence ratio is 1.

How did the switch fluorescence ratio turn out when CCAGGTAGGG was run?
The switch fluorescence ratio was 0.986.

TGGAAGGCAT was tested. Which switch fluorescence ratio did it give?
Its switch fluorescence ratio is 1.02.

With CTAAAATATT as the sequence, how does the switch fluorescence ratio read?
Its switch fluorescence ratio is 0.999.

How did the switch fluorescence ratio turn out when AGACTTCCTG was run?
Its switch fluorescence ratio is 0.949.

With TAATCTGCAC as the sequence, how does the switch fluorescence ratio read?
The switch fluorescence ratio was 1.09.
